Measurements taken from PubChem BioAssay AID1347417 (National Center for Advancing Translational Sciences (NCATS), 2020).
The campaign covered roughly 120,000 compounds. About 5,300 (4.4%) were called active. The shares of active, inactive and inconclusive entries below differ from those in the screen. Calls follow the shape of the dose curve; as a rule, active = well fitted inhibition curve with a large enough effect; inconclusive = small, poorly fitted or top-dose-only effect; inactive = no such curve, though single readings can be large or run the other way. Where the call is inconclusive, the potency comes from a doubtful curve fit.

Experiment: qHTS Primary assay for Inhibitors of Plasmodium falciparum Dd2 growth in vitro; also: nearly all actives have a fitted effect of over 65% in size;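 as to activity, negative = inhibition: plate controls were DMSO vehicle for no effect and reference drug for full effect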
Conditions: P. falciparum Dd2 growth, SYBR Green, 72 h; activity, negative = inhibition: at 28.9 µM (top of the series) unless noted; series mostly up to 28.9 µM
Procedure, shortened: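 Infected erythrocytes (Dd2, 0.3% parasitemia, 2.5% hematocrit final) are added to compound in RPMI-1640/Albumax II medium, grown 72 h at 37C in low oxygen, then lysed with saponin/Triton-X containing SYBR Green and read by fluorescence.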
Potency is read from the fitted curve at half-maximal effect; tags tell the direction and shape of the fitted curve.

Compound	outcome	Potency	activity, negative = inhibition
COc1ccccc1N1CCN([C@H]2[C@@H]3OC[C@@H](O3)[C@@H](NCc3ccco3)[C@@H]2O)CC1	inactive [at 44.1 µM]	–	–
COCCN1Cc2ccc(NCc3ccccc3)nc2C(C)(C(=O)NC2COC2)C1 (centres undefined)	–	inconclusive: 2.24 µM [inhibitor, partial curve]	–
COC(=O)[C@@H]1CCCN1c1ccc(-c2nc(-c3ccccc3F)no2)cn1	–	inconclusive: 6.31 µM [inhibitor, partial curve, poor fit]	–
COc1cccc(CNC(=O)Nc2cccc(-c3ccc(N4CCCCC4)nn3)c2)c1	–	inconclusive: 20 µM [inhibitor, single point]	–
COCCc1noc(-c2nnn3c2COC(c2ccc(F)cc2)C3)n1 (centres undefined)	inactive	–	–
CCCN1CCCn2nc(CNC(=O)Nc3ccccc3SC)cc2C1	–	–	inactive: 0.652%
CC(=O)c1cccc(NC(=O)c2nc(-c3ccccc3)n(-c3ccccc3)n2)c1	–	inconclusive: 1.26 µM [inhibitor, single point]	–
Cc1cc(C)c(NC(=O)CN(C)S(=O)(=O)c2ccc3c(c2)CCC(=O)N3)c(C)c1	–	inconclusive: 10 µM [inhibitor, single point]	–
COc1ccccc1C(=O)NC[C@H]1Cn2c(-c3ccc(Cl)cc3)cnc2CO1	–	active: 11.2 µM	–
CC(NC(=O)CSc1n[nH]c(-c2ccccc2Cl)n1)c1nc2ccccc2[nH]1 (centres undefined)	–	–	inactive: 38%
COc1cc(NC(=O)Cn2cccc2-c2nc(-c3ccc(OC)c(F)c3)no2)cc(OC)c1	–	–	inactive: -19.7%
CCOc1ccc(C(=O)NC2CCCN(c3cc(-c4ccc(F)cc4)[nH]n3)C2)cc1OCC (centres undefined)	–	–	inactive: -0.885%
Cc1ccsc1CN1CCc2nc(Nc3ccccc3)ncc2C1	–	inconclusive: 10 µM [inhibitor, partial curve, poor fit]	–
Cc1noc(-c2cccc(F)c2)c1C(=O)NCCCc1ccccc1	inactive	–	–
COc1cccc(C(=O)N2CC3(Cc4ccccc4N(C(C)=O)C3)C2)c1	–	–	inactive: -2.66%
CCCCN(C)C(=O)c1cn(C)c2ccc(S(=O)(=O)N3CCC(C)CC3)cc2c1=O	–	inconclusive: 10 µM [inhibitor, single point]	–
Cc1ccc2c(C)c(C(=O)N3C[C@@H](NS(C)(=O)=O)[C@H](C(C)C)C3)oc2c1	–	inconclusive: 10 µM [inhibitor, single point]	–
CCc1noc(-c2ccn3c(CNC(=O)c4ccoc4)nnc3c2)n1	–	–	inactive: 17.6%
O=C(NCc1ccc(F)cc1)N1CCC(OCCOc2ccc(F)cc2)CC1	–	inconclusive: 8.91 µM [inhibitor, single point]	–
CCOc1ccc(NC(=O)c2ccc3[nH]c(C)c(C)c3c2)cc1	–	inconclusive: 17.8 µM [inhibitor, single point]	–
CCCCC(=O)Nc1nnc(S(=O)(=O)N(C)Cc2ccc(Cl)cc2)s1	–	–	inactive: 21.5%
CC(=O)Nc1ccc(CN(Cc2ccc(NC(C)=O)cc2)C[C@H]2C[C@@H]3CCN2C[C@@H]3c2cc(-c3ccco3)nc(C)n2)cc1	–	inconclusive: 7.94 µM [inhibitor, partial curve, poor fit]	–

Compound	outcome	Potency	activity, negative = inhibition
CC(=O)c1ccc(N2CCN(C(=O)c3cn(C)c(=O)c4c3c3ccccc3n4C)CC2)cc1	–	inconclusive: 17.8 µM [inhibitor, single point]	–
CCc1cccc(C)c1NC(=O)c1ccc2c(c1)CCN2S(=O)(=O)c1ccc(Cl)cc1	–	inconclusive: 11.2 µM [inhibitor, single point]	–
COc1ccccc1-c1nn2c(=O)cc(CN3CCN(C(=O)Nc4ccc(C)cc4Cl)CC3)nc2s1	–	inconclusive: 10 µM [inhibitor, single point]	–
CCOc1ccccc1CN1CCC2(CCN(C(=O)c3ccccc3C)CC2)Oc2ccccc21	–	inconclusive: 17.8 µM [inhibitor, single point]	–
O=C(NC[C@H]1O[C@H](Cc2cc(-c3ccccn3)on2)CC[C@@H]1O)Nc1ccccc1	–	–	inactive: -19.7% [at 44.1 µM]
COC(=O)C1=C(C)N=C2SC=C(CC(=O)NCC3CCCO3)N2C1c1cccc(OC)c1 (centres undefined)	–	inconclusive: 3.98 µM [inhibitor, single point]	–
COc1ccc(-c2[nH]c(-c3ccc(O)cc3)nc2-c2ccccc2)cc1	–	inconclusive: 10 µM [inhibitor, single point]	–
CCC(C)NC(=O)N1CC(c2nc(CCOCC3CC3)no2)C1 (centres undefined)	–	–	inactive: 8%
NCc1ccccc1-c1ccccn1	–	–	inconclusive: -66.3% [inhibitor] [at 44.1 µM]
CCOc1ccc(NC(=O)Cn2c(=O)n(CCCC(=O)NCCc3ccc(Cl)cc3)c(=O)c3ccccc32)cc1	–	inconclusive: 11.2 µM [inhibitor, partial curve, poor fit]	–
CN(CCC1CCOCC1)C(=O)c1ccc2oc(-c3cccc(F)c3)nc2c1	–	–	inactive: 6.16%
COc1ccccc1CN1CCc2nc(C3CC3)nc(-c3ccc(O)cc3)c2CC1	–	inconclusive: 3.98 µM [inhibitor, single point]	–
CN1CC(=O)N(C2CCCNCC2)Cc2c(NCc3ccccc3F)ncnc21 (centres undefined)	–	–	inactive: -9.26%
Cc1cccc(N2CCN(S(=O)(=O)c3ccc(-c4cnc(C5CC5)o4)cc3)CC2)c1C	–	inconclusive: 17.8 µM [inhibitor, single point]	–
Cc1c(Cl)cccc1Nc1nn2c(=O)c3ccccc3nc2s1	–	inconclusive: 3.16 µM [inhibitor, full curve, poor fit]	–
c1cc(-c2n[nH]c(C3CCCCN3)n2)ccn1 (centres undefined)	–	–	inactive: 0.163%
CCn1cc(CN2CCc3nn(CCOC)c(=O)n3CC2)cn1	–	–	inactive: 2.35%
CC(C)C(=O)N[C@H]1C[C@@H](Cc2cc(COc3ccccc3)on2)C1(C)C	–	inconclusive: 2.82 µM [inhibitor, partial curve, poor fit]	–
O=C(c1ccc2ccccc2n1)N1C[C@@H](CO)[C@H](c2ccccn2)C1	–	–	inactive: -23%
CSCC(=O)N[C@H]1CCN2C(=O)c3cc(-c4ccc(Cl)cc4)ccc3NC(=O)[C@H]12	–	inconclusive: 25.1 µM [inhibitor, single point]	–
O=C(Cc1cccc(Cl)c1)N1CCC(n2c(=O)[nH]c3ccccc32)CC1	–	inconclusive: 5.01 µM [inhibitor, partial curve, poor fit]	–
Cc1cc(C)c2sc(NC(=O)c3ccc(S(=O)(=O)N4CCCC4)cc3)nc2c1	–	inconclusive: 11.2 µM [inhibitor, single point]	–

Compound	outcome	Potency	activity, negative = inhibition
Cc1nc(-c2ccc(Cl)cc2)n(Cc2cc(F)cc(F)c2)c(=O)c1CCO	–	–	inactive: -10.6%
COc1ccccc1CNS(=O)(=O)c1cc(Br)cc2c1N(C(=O)C1CC1)CC2	–	–	inactive: 0.958%
COc1ccc(CNc2nc(-c3ccc(Cl)cc3)nn2S(=O)(=O)c2ccc(C)cc2)cc1	–	inconclusive: 17.8 µM [inhibitor, single point]	–
COc1ccc(-c2noc([C@@H]3CCCN3C(=O)c3cc(Cl)ccc3OC)n2)cc1	–	–	inactive: -9.39%
COc1cccc(N2C(=O)NC(=NC3CCCC3)C23CCN([S+](=O)([O-])c2cccc(C(F)(F)F)c2)C3)c1 (centres undefined)	–	inconclusive: 14.1 µM [inhibitor, partial curve, poor fit]	–
COc1ccc(C(=O)N2CCCC(n3cc(-c4nc(-c5ccccc5)no4)nn3)C2)cc1 (centres undefined)	–	inconclusive: 3.16 µM [inhibitor, partial curve, poor fit]	–
CC[C@H]1CN(Cc2ccc(OC)cc2O)CC[C@H]1CC(=O)N1CCOCC1	–	active: 7.94 µM	–
Cc1ccc(S(=O)(=O)N2CC=C(c3c(C)n(CC(=O)N4CCCC4)c4ccccc34)CC2)cc1C	–	inconclusive: 11.2 µM [inhibitor, single point]	–
COc1cccc(CN2C(=O)OC3(CCN(C(=O)C4CCOCC4)CC3)C2(C)c2cccnc2)c1 (centres undefined)	inactive	–	–
COc1ncccc1-c1cnc2[nH]cc(CC(=O)N(C)Cc3ccccc3)c2c1	–	inconclusive: 6.31 µM [inhibitor, partial curve, poor fit]	–
Cc1sc(-n2cccc2)c(C(C)NC(=O)Nc2cccc(C(F)(F)F)c2)c1C (centres undefined)	–	inconclusive: 11.2 µM [inhibitor, single point]	–
CCn1c(=O)c2cc(C(=O)Nc3cc(OC)c(OC)c(OC)c3)sc2c2ccccc21	inactive	–	–
Cc1cccc(N2C(=O)CSC23CCN(C(=O)COc2ccccc2)CC3)c1	–	inconclusive: 5.62 µM [inhibitor, partial curve, poor fit]	–
CC(=O)c1cccc(NC(=O)CN2C=NS(=O)(=O)c3ccc(C)cc32)c1	–	inconclusive: 17.8 µM [inhibitor, single point]	–
COc1cc(NC(=O)C2CCc3ncc(-c4ccsc4)n3C2)cc(OC)c1 (centres undefined)	–	inconclusive: 8.91 µM [inhibitor, single point]	–
CC1=C(C(=O)Nc2cccnc2)C(c2cccc(Br)c2)n2nc(SCc3ccccc3)nc2N1 (centres undefined)	–	inconclusive: 12.6 µM [inhibitor, partial curve]	–
c1ccc(CN2C[C@H](c3ccc4c(c3)OCO4)[C@@H]3[C@H]2C2CCN3CC2)nc1	–	inconclusive: 17.8 µM [inhibitor, single point]	–
COc1ccc(-c2cc(N3CCCC(NC(=O)c4cccc(NC(C)=O)c4)C3)n[nH]2)cc1 (centres undefined)	–	inconclusive: 1.12 µM [inhibitor, partial curve, poor fit]	–
CN(C)c1cccc(C(=O)N2CCC(c3n[nH]c(=O)n3-c3ccccc3)CC2)c1	–	inconclusive: 0.251 µM [inhibitor, full curve, poor fit]	–
COc1ccc(CC(=O)N2CCC(N3CC4CC(C3)[C@H]3CCCC(=O)N3C4)CC2)cc1Cl (some centres undefined)	–	inconclusive: 17.8 µM [inhibitor, single point]	–
